Several values for one entry are separate records, joined by “and”; a condition that tells them apart may be missing. Equal values may be shown once. Among all 16,000 compounds or so, about 120 (0.75%) were called active. Inconclusive results, whose numbers are uncertain, are shown with a selection of clear calls. Calls come from the whole dose curve; as a rule, active = well fitted inhibition curve with a large enough effect; inconclusive = small, poorly fitted or top-dose-only effect; inactive = no such curve, though single readings can be large or run the other way. Potencies beside an inconclusive call are fits to weak or partial responses and may not hold up. The source holds several records for some structures; these can differ, active in one and inactive in another.
Each molecule was assayed against Rap guanine nucleotide exchange factor 3 (Homo sapiens) (UniProt O95398) (assay: Validation qHTS for antagonist of cAMP-regulated guanine nucleotide exchange factor 3 (EPAC1)). Conditions: EPAC1 Rap1B-BODIPY-GDP exchange, fluorescence; series mostly up to 150 µM.
Chain of UniProt O95398 (O95398 whole entry, looked up): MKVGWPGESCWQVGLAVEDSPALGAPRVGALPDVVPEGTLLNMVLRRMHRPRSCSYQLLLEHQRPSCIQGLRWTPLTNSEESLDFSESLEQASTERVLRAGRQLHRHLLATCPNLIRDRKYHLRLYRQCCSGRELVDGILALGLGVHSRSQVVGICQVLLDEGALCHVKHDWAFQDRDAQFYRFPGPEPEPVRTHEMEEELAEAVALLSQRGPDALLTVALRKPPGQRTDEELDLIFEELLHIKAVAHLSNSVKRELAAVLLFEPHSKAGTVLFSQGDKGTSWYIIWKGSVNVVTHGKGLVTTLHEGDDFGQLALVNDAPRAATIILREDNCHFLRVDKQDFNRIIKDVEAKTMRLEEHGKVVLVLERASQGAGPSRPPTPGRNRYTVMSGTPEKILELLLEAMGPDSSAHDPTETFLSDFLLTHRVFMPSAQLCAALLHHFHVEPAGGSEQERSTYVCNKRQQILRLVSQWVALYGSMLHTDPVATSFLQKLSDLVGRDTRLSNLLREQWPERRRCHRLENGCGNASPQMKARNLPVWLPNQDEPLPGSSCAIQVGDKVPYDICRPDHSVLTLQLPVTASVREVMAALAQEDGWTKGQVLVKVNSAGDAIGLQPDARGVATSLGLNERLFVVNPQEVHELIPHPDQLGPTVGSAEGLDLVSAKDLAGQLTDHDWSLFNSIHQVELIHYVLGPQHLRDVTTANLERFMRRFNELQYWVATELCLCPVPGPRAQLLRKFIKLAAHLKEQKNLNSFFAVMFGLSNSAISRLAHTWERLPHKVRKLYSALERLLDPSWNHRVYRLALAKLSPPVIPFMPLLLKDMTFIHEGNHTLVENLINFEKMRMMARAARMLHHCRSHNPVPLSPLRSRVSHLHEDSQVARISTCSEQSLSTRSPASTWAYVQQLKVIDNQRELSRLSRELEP
In short: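 EPAC1 (100 nM) mixed with 250 nM RAP1B-BODIPY-GDP and 50 uM GDP; compounds in concentration series, 5 min at room temperature. Fluorescence (ex 480/em 540 nm) read every 5 min for 30 min; normalized to ATA control and DMSO.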
Note: nearly all actives have a fitted effect of over 75% in size.
Potency is the fitted concentration of half-maximal effect; tags give direction and shape of the fitted curve.

| Structure (SMILES) | Potency |
| --- | --- |
| C[C@@H]1CCC2C(C)(C)C3CC21CC[C@@]3(C)O (stereo not given in full) | inconclusive: 112 µM [inhibitor, single point] |
| O=C(C[C@H]1C(=O)N(C2CCCCC2)C[C@@H]1Cc1ccccc1)Nc1ccccc1 | inconclusive: 35.5 µM [inhibitor, partial curve, poor fit] |
| CCOC(=O)C1=C(O)C(=O)N(Cc2ccccc2)C1 | inconclusive: 89.1 µM [inhibitor, single point] |
| O=c1c(O)c(-c2ccc(O)c(O)c2)oc2cc(O)cc(O)c12 | inconclusive: 126 µM [inhibitor, single point] and inconclusive: 100 µM [inhibitor, partial curve, poor fit] and inconclusive: 141 µM [inhibitor, partial curve, poor fit] |
| O=C(Oc1ccccc1)N1CCC2(CC1)CCN(c1ccccn1)CC2 | inconclusive: 112 µM [inhibitor, single point] |
| CC(C)=CCC1=C(O)c2ccccc2C(=O)C1=O | inactive |
| CN1CC(O)C2=CC(=O)C(=O)C=C21 (stereo not given) | inconclusive: 44.7 µM [inhibitor, partial curve] |
| COc1ccc(NC(=O)c2ccc(-c3ccc(-c4noc(C)n4)cc3C)cc2)cc1N1CCN(C)CC1 | inconclusive: 50.1 µM [inhibitor, partial curve] |
| O=C(OC1Cc2c(O)cc(O)cc2OC1c1cc(O)c(O)c(O)c1)c1cc(O)c(O)c(O)c1 (stereo not given) | inconclusive: 100 µM [inhibitor, single point] |
| N#Cc1cccc(NC(=O)N2CCCC3(CCN(C(=O)c4cc(C(F)(F)F)cc(C(F)(F)F)c4)CC3)C2)c1 | inconclusive: 56.2 µM [inhibitor, partial curve] |
| CC1CCC(C(C)C)[C@H](O)C1 (stereo not given in full) | inconclusive: 100 µM [inhibitor, single point] |
| Cc1nc(CN2CCN(C(=O)CC3(c4ccccc4Cl)CC(=O)N(C)C3=O)CC2)cs1 (stereo not given) | inconclusive: 126 µM [inhibitor, single point] |
| COc1ccccc1N1CCN(C[C@@H](O)COc2cccc3ccccc23)CC1 | inconclusive: 2.51 µM [inhibitor, full curve] |
| Cc1cccc(CNc2ccnc(-c3ccccc3C(F)(F)F)n2)c1 | inconclusive: 63.1 µM [inhibitor, partial curve] |
| O=C(Nc1cccc(F)c1)N1CC2(CCN(C(=O)c3cc(C(F)(F)F)cc(C(F)(F)F)c3)CC2)C1 | inconclusive: 79.4 µM [inhibitor, partial curve, poor fit] |
| O=S(=O)(O)c1ccc2c(N=Nc3ccc(S(=O)(=O)O)c4ccccc34)c(O)c(S(=O)(=O)O)cc2c1 | inconclusive: 100 µM [inhibitor, partial curve, poor fit] |
| CCC1C(=O)NCCN1Cc1ccc2c(c1)CN(Cc1cc(OC)ccc1OC)CCO2 (stereo not given) | inactive |
| CC(C)=CCc1c2c(c3occ(-c4ccc(O)cc4)c(=O)c3c1O)C=CC(C)(C)O2 | inconclusive: 31.6 µM [inhibitor, full curve] |
| COC(=O)C1=C(C)NC(C)=C(C(=O)OCCN(C)Cc2ccccc2)C1c1cccc([N+](=O)[O-])c1 (stereo not given) | inconclusive: 12.6 µM [inhibitor, partial curve] |
| CSc1nnc(CCNC(=O)c2ccc(-c3cccc(F)c3)cc2)n1-c1ccc(F)cc1 | inconclusive: 126 µM [inhibitor, single point] |

Source: PubChem BioAssay AID1645882 (National Center for Advancing Translational Sciences (NCATS), 2021)
